IC50 data for 49 molecules are collected here from patent US8551981B2, “Furo[3,2-d]pyrimidine compounds” (AbbVie Inc., priority 2010, dated 2013).

Where two headings read alike, the source gives them in different places. Where only a bound is given, the exact number is not on record here.

The target in the test is Syk catalytic domain (aa 356-635 with a C-terminal His-tag) (Homo sapiens, UniProt P43405). Kind of test: In vitro Syk kinase activity by trFRET (Syk catalytic domain).
[1] abbreviates: Syk IC50, Syk catalytic domain (aa 356-635), trFRET, 0.001 mM ATP.

For the molecule `Cc1n[nH]c2cc(Nc3nc(OC4CCC4)c4occc4n3)ccc12` [C.1.81], the IC50 (usually the midpoint of a concentration-inhibition curve) (Syk IC50, class symbols A-D) is less than 100 nM.

Where the note is “Syk IC50, class symbols A-D”, `NC1CCCN(c2nc(Nc3ccc4cn[nH]c4c3)nc3ccoc23)CC1` (stereo not shown) [C.1.82] had an IC50 of 100 to 1000 nM.

The molecule `CC(=O)NCC1CCN(c2nc(Nc3ccc(S(N)(=O)=O)cc3)nc3ccoc23)CC1` [E.1.1.1] gave a half-inhibitory concentration (IC50) under setting [1] of 1000 to 10000 nM.

In turn, `O=C(NC1CC1)c1n[nH]c2cc(Nc3nc(NC4CC4)c4occc4n3)ccc12` [E.2.1, N-Cyclopropyl-6-(4-(cyclopropylamino)furo[3,2-d]pyrimidin-2-ylamino)-1H-indazole-3-carboxamide] showed an IC50 under setting [1] of less than 100 nM.

Regarding `C=CCNc1nc(Nc2ccc(S(C)(=O)=O)cc2)nc2ccoc12` [Example #1, N^4-Allyl-N^2-(4-(methylsulfonyl)phenyl)furo[3,2-d]pyrimidine-2,4-diamine], the IC50 under setting [1] lay within 100 to 1000 nM.

As for `c1ccc(CNc2nc(Nc3cc(C4CC4)[nH]n3)c3occc3n2)cc1` [Example #2, N^2-Benzyl-N^4-(5-cyclopropyl-1H-pyrazol-3-yl)furo[3,2-d]pyrimidine-2,4-diamine], the 50% inhibitory concentration (IC50) under setting [1] lay in the range of 100 to 1000 nM.

For `Cc1n[nH]c2cc(Nc3nc(N4CCC(/C(N)=N/O)CC4)c4occc4n3)ccc12` [Example #4, (Z)—N′-Hydroxy-1-(2-(3-methyl-1H-indazol-6-ylamino)furo[3,2-d]pyrimidin-4-yl)piperidine-4-carboximidamide], the concentration for half-maximal inhibition (IC50) under setting [1] fell in the range of 100 to 1000 nM.

For `Cc1n[nH]c2cc(Nc3nc(N4CCC5(CCNC5)CC4)c4occc4n3)ccc12` [Example #5, N-(3-Methyl-1H-indazol-6-yl)-4-(2,8-diazaspiro[4.5]decan-8-yl)furo[3,2-d]pyrimidin-2-amine], the IC50 under setting [1] was less than 100 nM.

Turning to `CC1Cc2ccc(Nc3nc(NC4CC4)c4occc4n3)cc2NC1=O` (stereo not shown) [Example #6, 7-(4-(Cyclopropylamino)furo[3,2-d]pyrimidin-2-ylamino)-3-methyl-3,4-dihydroquinolin-2(1H)-one], the IC50 under setting [1] was less than 100 nM.

In the case of `O=C1CCc2ccc(Nc3nc(NC4CC4)c4occc4n3)cc2N1` [Example #7, 7-(4-(Cyclopropylamino)furo[3,2-d]pyrimidin-2-ylamino)-3,4-dihydroquinolin-2(1H)-one], the IC50 under setting [1] was less than 100 nM.

Molecule `O=C1CCCc2ccc(Nc3nc(NC4CC4)c4occc4n3)cc2N1` [Example #8, 8-(4-(Cyclopropylamino)furo[3,2-d]pyrimidin-2-ylamino)-4,5-dihydro-1H-benzo[b]azepin-2(3H)-one] gave a half-maximal inhibitory concentration (IC50) under setting [1] of less than 100 nM.

In the case of `Cc1n[nH]c2cc(Nc3nc(N4CC[C@@H](CN)[C@H](O)C4)c4occc4n3)ccc12` [Example #9, (3S,4S)-4-(Aminomethyl)-1-(2-(3-methyl-1H-indazol-6-ylamino)furo[3,2-d]pyrimidin-4-yl)piperidin-3-ol], under setting [1], the IC50 was less than 100 nM.

As for `CC1(C)Oc2ccc(Nc3nc(NC4CC4)c4occc4n3)cc2NC1=O` [Example #10, 6-(4-(Cyclopropylamino)furo[3,2-d]pyrimidin-2-ylamino)-2,2-dimethyl-2H-benzo[b][1,4]oxazin-3(4H)-one], the IC50 (Syk catalytic domain (aa 356-635), trFRET, 0.001 mM ATP, read-out: Syk IC50) is less than 100 nM.

Take `CC1(C)C(=O)Nc2cc(Nc3nc(NC4CC4)c4occc4n3)ccc21` [Example #11, 6-(4-(Cyclopropylamino)furo[3,2-d]pyrimidin-2-ylamino)-3,3-dimethylindolin-2-one]: the concentration for half-maximal inhibition (IC50) under setting [1] is less than 100 nM.

As to `CC1(CN)CCN(c2nc(Nc3ccc4cn[nH]c4c3)nc3ccoc23)CC1` [Example #12, 4-(4-(Aminomethyl)-4-methylpiperidin-1-yl)-N-(1H-indazol-6-yl)furo[3,2-d]pyrimidin-2-amine], the half-maximal inhibitory concentration (IC50) under setting [1] was less than 100 nM.

Under setting [1], `FC(F)(F)CNc1nc(Nc2ccc3cn[nH]c3c2)nc2ccoc12` [Example #13, N^2-(1H-Indazol-6-yl)-N^4-(2,2,2-trifluoroethyl)furo[3,2-d]pyrimidine-2,4-diamine] gave a half-maximal inhibitory concentration (IC50) of less than 100 nM.

Under setting [1], `c1cc2nc(Nc3ccc4cn[nH]c4c3)nc(NC3CC3)c2o1` [Example #15, N^4-Cyclopropyl-N^2-(1H-indazol-6-yl)furo[3,2-d]pyrimidine-2,4-diamine] registered a half-inhibitory concentration (IC50) of less than 100 nM.

For the molecule `CC1(C)C(=O)Nc2cc(Nc3nc(NCC(F)F)c4occc4n3)ccc21` [Example #16, 6-(4-(2,2-Difluoroethylamino)furo[3,2-d]pyrimidin-2-ylamino)-3,3-dimethylindolin-2-one], under setting [1], the half-maximal inhibitory concentration (IC50) is less than 100 nM.

With `Cc1cc(Nc2nc(NC3CC3)c3occc3n2)cc2[nH]ncc12` [Example #AC.1, N^4-cyclopropyl-N^2-(4-methyl-1H-indazol-6-yl)furo[3,2-d]pyrimidine-2,4-diamine], under setting [1], the IC50 was less than 100 nM.

Consider `Cc1n[nH]c2cc(Nc3nc(NC4CC4)c4occc4n3)cc(F)c12` [Example #AC.1.1], for which, under setting [1], the IC50 is less than 100 nM.

Under setting [1], `CC1(C)Oc2ccc(Nc3nc(N4CCC(CN)(CCO)CC4)c4occc4n3)cc2NC1=O` [Example #AD.1, 6-(4-(4-(Aminomethyl)-4-(2-hydroxyethyl)piperidin-1-yl)furo[3,2-d]pyrimidin-2-ylamino)-2,2-dimethyl-2H-benzo[b][1,4]oxazin-3(4H)-one] came in with an IC50 of less than 100 nM.

Consider `Cc1n[nH]c2cc(Nc3nc(N4CCC(CN)C4)c4occc4n3)ccc12` (stereo not shown) [Example #AG.1, 4-(3-(Aminomethyl)pyrrolidin-1-yl)-N-(3-methyl-1H-indazol-6-yl)furo[3,2-d]pyrimidin-2-amine], for which the IC50 under setting [1] was less than 100 nM.

As to `Cc1n[nH]c2cc(Nc3nc(N4CCc5nc[nH]c5C4)c4occc4n3)ccc12` [Example #AK.1, 4-(6,7-Dihydro-3H-imidazo[4,5-c]pyridin-5(4H)-yl)-N-(3-methyl-1H-indazol-6-yl)furo[3,2-d]pyrimidin-2-amine], the half-maximal inhibitory concentration (IC50) under setting [1] is less than 100 nM.

Consider `Cc1n[nH]c2cc(Nc3nc(N4CCC(O)(CN)CC4)c4occc4n3)ccc12` [Example #AM.1, 4-(Aminomethyl)-1-(2-(3-methyl-1H-indazol-6-ylamino)furo[3,2-d]pyrimidin-yl)piperidin-4-ol], for which the IC50 under setting [1] was less than 100 nM.

`CC1(C)Oc2ccc(Nc3nc(N4CCC(O)(CN)CC4)c4occc4n3)cc2NC1=O` [Example #AM.1.1] gave a 50% inhibitory concentration (IC50) (Syk IC50, class symbols A-D) of less than 100 nM.

As to `CC1(C)Oc2ccc(Nc3nc(N4CC[C@@H](CN)[C@H](O)C4)c4occc4n3)cc2NC1=O` [Example #AM.1.2], the IC50 (Syk IC50, class symbols A-D) was less than 100 nM.

Under “Syk IC50, class symbols A-D”, `CC1(C)C(=O)Nc2cc(Nc3nc(N4CCC(O)(CN)CC4)c4occc4n3)ccc21` [Example #AM.1.3] registered a half-maximal inhibitory concentration (IC50) of less than 100 nM.

`COC1(CN)CCN(c2nc(Nc3ccc4c(c3)NC(=O)C(C)(C)O4)nc3ccoc23)CC1` [F.1, 6-(4-(4-(Aminomethyl)-4-methoxypiperidin-1-yl)furo[3,2-d]pyrimidin-2-ylamino)-2,2-dimethyl-2H-benzo[b][1,4]oxazin-3(4H)-one]: the half-maximal inhibitory concentration (IC50) under setting [1] was less than 100 nM.

`CN(C)C(=O)c1n[nH]c2cc(Nc3nc(NC4CC4)c4occc4n3)ccc12` [J.1, 6-(4-(Cyclopropylamino)furo[3,2-d]pyrimidin-2-ylamino)-N,N-dimethyl-1H-indazole-3-carboxamide] showed a half-maximal inhibitory concentration (IC50) under setting [1] of less than 100 nM.

Consider `CCCC(=O)Nc1ccc(Nc2nc(Nc3ccc4cn[nH]c4c3)c3occc3n2)cc1` [J.1.1], for which, under setting [1], the concentration for half-maximal inhibition (IC50) was 100 to 1000 nM.

Regarding `CNCC1CCN(c2nc(Nc3ccc4cn[nH]c4c3)nc3ccoc23)C1` (stereo not shown) [J.1.2], the IC50 under setting [1] was in the range of 100 to 1000 nM.

Molecule `c1cc2ccc(Nc3nc(NC4CC4)c4occc4n3)cc2[nH]1` [J.1.3] yielded a half-maximal inhibitory concentration (IC50) under setting [1] of 100 to 1000 nM.

For the molecule `Cc1n[nH]c2cc(Nc3nc(N(C)C4CC4)c4occc4n3)ccc12` [J.1.4], the concentration for half-maximal inhibition (IC50) under setting [1] lay in the range of 100 to 1000 nM.

`Cc1n[nH]c2cc(Nc3nc(NC4CC(F)(F)C4)c4occc4n3)ccc12` [J.1.5] came in with an IC50 under setting [1] of 100 to 1000 nM.

Turning to `Cc1n[nH]c2cc(Nc3nc(NC4CC4C(F)(F)F)c4occc4n3)ccc12` (stereo not shown) [J.1.6], the half-maximal inhibitory concentration (IC50) under setting [1] lay within 100 to 1000 nM.

On to `c1cc(-c2n[nH]c3cc(Nc4nc(NC5CC5)c5occc5n4)ccc23)ccn1` [J.1.7], for which, under setting [1], the IC50 was less than 100 nM.

Under setting [1], `N#Cc1n[nH]c2cc(Nc3nc(NC4CC4)c4occc4n3)ccc12` [J.1.8] showed an IC50 of less than 100 nM.

As for `Cc1n[nH]c2cc(Nc3nc(N4CCC(CNC5CCS(=O)(=O)CC5)CC4)c4occc4n3)ccc12` [J.1.9], the concentration for half-maximal inhibition (IC50) under setting [1] is 100 to 1000 nM.

For `Cc1n[nH]c2cc(Nc3nc(N4CCC(CNC5CCOCC5)CC4)c4occc4n3)ccc12` [J.1.10], under setting [1], the 50% inhibitory concentration (IC50) fell in the range of 100 to 1000 nM.

`Cc1n[nH]c2cc(Nc3nc(NCc4cccnc4)c4occc4n3)ccc12` [J.1.12]: under setting [1], the IC50 is 100 to 1000 nM.

As for `NCC1(F)CCN(c2nc(Nc3ccc4cn[nH]c4c3)nc3ccoc23)CC1` [J.1.13], the IC50 under setting [1] was in the range of 1000 to 10000 nM.

Molecule `O=C(c1n[nH]c2cc(Nc3nc(NC4CC4)c4occc4n3)ccc12)N1CCOCC1` [J.1.14] came in with a half-inhibitory concentration (IC50) under setting [1] of less than 100 nM.

In turn, `O=C(NCCO)c1n[nH]c2cc(Nc3nc(NC4CC4)c4occc4n3)ccc12` [J.1.15] showed an IC50 under setting [1] of 100 to 1000 nM.

In the case of `Cc1n[nH]c2cc(Nc3nc(N4CCC(CN)CC4)c4occc4n3)ccc12` [Q.1, 4-(4-(Aminomethyl)piperidin-1-yl)-N-(3-methyl-1H-indazol-6-yl)furo[3,2-d]pyrimidin-2-amine], under setting [1], the IC50 was less than 100 nM.

In turn, `NCCCNc1nc(Nc2ccc3cn[nH]c3c2)nc2ccoc12` [Q.1.1] returned an IC50 (Syk IC50, class symbols A-D) of 100 to 1000 nM.

Consider `NCCCCNc1nc(Nc2ccc3cn[nH]c3c2)nc2ccoc12` [Q.1.2], for which, under “Syk IC50, class symbols A-D”, the IC50 was less than 100 nM.

The molecule `Cc1n[nH]c2cc(Nc3nc(N4CCC5(CCCNC5)CC4)c4occc4n3)ccc12` [Q.1.3] gave a concentration for half-maximal inhibition (IC50) (Syk IC50, class symbols A-D) of less than 100 nM.

Turning to `Cc1n[nH]c2cc(Nc3nc(N4CCC5(CC4)CNCCO5)c4occc4n3)ccc12` [Q.1.4], the IC50 (Syk IC50, class symbols A-D) is less than 100 nM.

With `CC1(C)Oc2ccc(Nc3nc(N4CCCC(N)C(O)C4)c4occc4n3)cc2NC1=O` (stereo not shown) [R.1, 6-(4-(4-Amino-3-hydroxyazepan-1-yl)furo[3,2-d]pyrimidin-2-ylamino)-2,2-dimethyl-2H-benzo[b][1,4]oxazin-3(4H)-one], the concentration for half-maximal inhibition (IC50) under setting [1] fell in the range of 100 to 1000 nM.
